According to PubChem BioAssay (NCATS):
Inconclusive results, whose numbers are uncertain, are shown with a selection of clear calls. A potency beside an inconclusive call is a rough fit, not a confirmed value. Active and inactive are the calls of the source. Calls come from the whole dose curve; as a rule, active = well fitted inhibition curve with a large enough effect; inconclusive = small, poorly fitted or top-dose-only effect; inactive = flat fitted curve, though single readings scatter.

molecular target: Dual specificity protein kinase CLK4 (Homo sapiens) (UniProt Q9HAZ1); assay: qHTS Assay for Inhibitors of CDC-like Kinase 4 (Kinase-Glo Assay) (AID 1770); details: recombinant Clk4, Kinase-Glo ATP depletion luminescence; series mostly up to 66.7 µM; note: nearly all actives have a fitted effect of over 65% in size
Summary of the method: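 Clk4 25 nM, RS peptide 100 uM, ATP 1 uM, pH 7.5 Tris, 10 mM MgCl2, 2.5 mM DTT; 4.5 h RT; ATP depletion read by Kinase-Glo luminescence.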
Potency is the fitted concentration of half-maximal effect; tags give direction and shape of the fitted curve.

Chain of UniProt Q9HAZ1 (Q9HAZ1 whole entry, looked up): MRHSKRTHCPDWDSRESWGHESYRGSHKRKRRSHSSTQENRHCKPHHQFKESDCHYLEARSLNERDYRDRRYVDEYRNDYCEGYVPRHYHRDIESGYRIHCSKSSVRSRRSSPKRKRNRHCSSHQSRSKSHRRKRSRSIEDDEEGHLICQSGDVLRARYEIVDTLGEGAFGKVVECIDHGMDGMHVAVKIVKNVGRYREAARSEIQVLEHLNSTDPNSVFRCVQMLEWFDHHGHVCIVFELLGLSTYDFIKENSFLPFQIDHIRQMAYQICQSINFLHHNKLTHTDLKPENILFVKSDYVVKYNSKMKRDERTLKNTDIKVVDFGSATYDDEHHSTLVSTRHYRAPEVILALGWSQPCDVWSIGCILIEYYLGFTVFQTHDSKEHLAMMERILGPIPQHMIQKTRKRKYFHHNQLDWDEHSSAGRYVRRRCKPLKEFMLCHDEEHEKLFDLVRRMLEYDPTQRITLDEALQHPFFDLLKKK

Potency, inactive:
Cc1ccccc1-c1cc(NCc2ccccc2)ncn1
Cc1ccccc1-c1cncnc1NCc1ccccc1

Potency, inconclusive:
COc1ccc(CNc2cc(-c3cccc(C#N)c3)ncn2)c(OC)c1 35.5 µM [falling, single point]
CCNc1ncc2nc(C)c(=O)n(Cc3ccc(F)cc3)c2n1 25.1 µM [falling, partial curve]
c1ccc(Nc2ncncc2-c2ccc3c(c2)OCO3)cc1 31.6 µM [falling, partial curve]
COc1ccc(Oc2ncc3nc(-c4cc(F)cc(F)c4)c(=O)n(C[C@H]4CCCO4)c3n2)cc1 39.8 µM [falling, partial curve]
CN(C)C(=O)c1ccc(-c2ccc3ncnc(Nc4ccccc4)c3c2)cc1 28.2 µM [falling, partial curve]
COc1ccc2[nH]cc(CCNc3ncncc3-c3ccc(C(=O)N(C)C)cc3)c2c1 35.5 µM [falling, single point]
COc1ccc(-c2nc3cnc(Nc4cccc(OC)c4)nc3n(C)c2=O)cc1 35.5 µM [falling, partial curve]
CC(=O)NCCNc1nc(-c2c(C)noc2C)nc2ccccc12 12.6 µM [falling, partial curve]
COc1ccc(-c2nc3cnc(N4CCOCC4)nc3n(Cc3cccs3)c2=O)cc1 35.5 µM [falling, single point]
